Measured values taken from publication PMC9352240, “Selective Detection of Misfolded Tau From Postmortem Alzheimer’s Disease Brains” (Frontiers in Aging Neuroscience, 2022).

Molecular target: misfolded tau seeds from postmortem Alzheimer's disease brain homogenates (human (endogenous in postmortem brain))
Assay: cell-based or functional assay

B1: recombinant full-length wild-type human tau isoform 0N4R (natural protein)
chain: not shown
- RT-QuIC (ThT fluorescence): t1/2 of seeded aggregation of 12 uM substrate with AD brain homogenate: 37 h
